The other results are listed elsewhere or left out. Shown are side measurements of this screen, not its main read-out; they come without a call.
Key:
Assay in all cases: Primary Screen for Target Class Profiling of Small Molecule Inhibitors of Methyltransferases
[1] = molecular target: Glycine N-methyltransferase (Homo sapiens) (UniProt Q14749); conditions: purified enzyme, MTase-Glo SAH luminescence; measured here: GNMT inhibition; at 40 µM; stronger effect = lower value
Summary of the method: (§1)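 Each enzyme was assayed with SAM and its substrate. SAH formation detected by MTase-Glo luminescence; single-point 40 uM screen[…].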

[2] = molecular target: Guanidinoacetate N-methyltransferase (Homo sapiens) (UniProt Q14353); conditions: purified enzyme, MTase-Glo SAH luminescence; measured here: GAMT inhibition; at 40 µM; stronger effect = lower value
Summary of the method: as §1

[3] = molecular target: Histamine N-methyltransferase (Homo sapiens) (UniProt P50135); conditions: purified enzyme, MTase-Glo SAH luminescence; measured here: HNMT inhibition; at 40 µM; stronger effect = lower value
Summary of the method: as §1

[4] = molecular target: Nicotinamide N-methyltransferase (Homo sapiens) (UniProt P40261); conditions: purified enzyme, MTase-Glo SAH luminescence; measured here: NNMT inhibition; at 40 µM; stronger effect = lower value
Summary of the method: as §1

[5] = molecular target: Phenylethanolamine N-methyltransferase (Homo sapiens) (UniProt P11086); conditions: purified enzyme, MTase-Glo SAH luminescence; measured here: PNMT inhibition; at 40 µM; stronger effect = lower value
Summary of the method: as §1
On the % scale 0 is the no-effect control and ±100 the full control effect.

SMILES	activity change, negative = inhibition [1] [%]	activity change, negative = inhibition [2] [%]	activity change, negative = inhibition [3] [%]	activity change, negative = inhibition [4] [%]	activity change, negative = inhibition [5] [%]
CCCn1c(=O)c2ccccc2n2c(=O)n(Cc3ccccc3)nc12	1.5	0.224	8.75	-1.69	5.67
O=C(COc1ccc(F)cc1)N1CCCN(c2cc(-c3ccc(Br)cc3)[nH]n2)CC1	-13.5	-9.61	-7.54	-17.4	-15.5
Cc1onc(C(=O)N2CCN(C(c3ccc(Cl)cc3)c3ccc(Cl)cc3)CC2)c1[N+](=O)[O-]	-4.12	-36.7	-1.92	-38.3	-17.3
COc1ccc(CNC(=O)C2(C)Cn3cnc(C(=O)NCCc4ccc(C)cc4)c3C(=O)N2C2CC2)cc1 (stereo not given)	3.3	3.94	14.6	3.92	7.93
CCOc1ccc(C(=O)N2CCC(n3cc(-c4nc(CC)no4)nn3)C2)cc1 (stereo not given)	-1.9	1.35	2.96	0.106	2.7
C=CCn1c(=O)c2ccc(C(=O)NC(C)CC)cc2n2c(=O)n(CC(=O)Nc3cccc(F)c3)nc12 (stereo not given)	0.872	0.272	1.3	1.08	2.04
CC(C)Cn1c(=O)c2ccccc2n2c(SCC(=O)Nc3ccc4c(c3)OCO4)nnc12	-7.74	4.6	2.86	-5.64	3.38
CCC(C)N1C(=O)c2ccccc2CC1(C)C(=O)NC1CCCCCCC1 (stereo not given)	-2.01	0.102	8.78	6.91	2.4
CN(C)C/C=C/C(=O)Nc1cccc(C(=O)Nc2ccc(Nc3nccc(-c4cccnc4)n3)cc2)c1	-92.1	16.3	-70.3	-3.69	2.02
Fc1cccc(-c2nnn3c2nc(NC2CCCCC2)c2ccccc23)c1	-6.87	-0.484	-9.1	-15.1	-15.8
O=[N+]([O-])c1cccc2c(Br)[nH]nc12	-61.4	6.7	10.3	-22.1	-20.5
CC1(C(=O)NC2CCCCCCC2)Cn2c(ccc2-c2ccco2)C(=O)N1CCc1cccs1 (stereo not given)	-7.12	4.45	1.73	-9.3	-2.68
Cc1ccc(CN2CC(Oc3cccc(C(=O)N4CCOCC4)c3)C2)s1	-1.03	0.89	-3.63	-1.57	2.04
